PubChem BioAssay AID1345082 (National Center for Advancing Translational Sciences (NCATS), 2018)
The campaign covered roughly 94,000 compounds. About 4,000 (4.3%) were called active. The shares of active, inactive and inconclusive entries below differ from those in the screen. Calls follow the shape of the dose curve; as a rule, active = well fitted inhibition curve with a large enough effect; inconclusive = small, poorly fitted or top-dose-only effect; inactive = no such curve, though single readings can be large or run the other way. Potencies beside an inconclusive call are fits to weak or partial responses and may not hold up.
% is scaled to controls: 0 for no effect and ±100 for the full control effect; potency is read from the fitted curve at half-maximal effect; tags tell the direction and shape of the fitted curve.

Assay: Cytotoxic Profiling in NIH 3T3 Cell Line of Diverse Libraries Using Quantitative High-Throughput Screening; also: nearly all actives have a fitted effect of over 55% in size
Settings: NIH 3T3 viability, CellTiter-Glo ATP luminescence, 48-72 h; activity change, negative = cytotoxicity: at 96.7 µM (top of the series); series mostly up to 96.7 µM
Outline: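 Cells were seeded at 400 per well, treated with pin-transferred compound, and kept 48 or 72 hr at 37 °C before CellTiter-Glo addition and luminescence imaging of cellular ATP.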
In the case of O=C(NC1CCN(c2cc(-c3ccc(Cl)cc3)[nH]n2)CC1)c1ccncc1, the Potency is reported as inconclusive: 14.1 µM [inhibitor, full curve, poor fit].
For Cc1ccc(NC(=O)C2CCN(C(=O)c3ncn4c3COC(c3ccc(F)cc3)C4)CC2)cc1C (centres undefined), the “outcome” value was “inactive”.
For COc1ccc(CCC(=O)N2CCC3(CC2)C(=O)N(C)c2ccccc23)cc1, the “activity change, negative = cytotoxicity” value was inactive: -21.4%.
In the case of CSc1ccc(NC(=O)c2cc(-c3ccc[nH]3)n[nH]2)cc1, the “activity change, negative = cytotoxicity” value is reported as inactive: -10.1%.
In the case of NC(=O)c1ccccc1OC[C@@H]1CCCN2CCCC[C@H]12, the “activity change, negative = cytotoxicity” value is reported as inactive: 3.95%.
With CC(=O)N1CCN(c2cc(-c3ccccc3)nc3c(C)noc23)CC1 the Potency was active: 89.1 µM.
In the case of COCc1nnc2n1CCC(NC(=O)c1ccoc1)CC2 (centres undefined), the Potency is reported as inconclusive: 31.6 µM [inhibitor, partial curve, poor fit].
With O=S(=O)(c1ccc2c(c1)CCC2)N1CCCCC1c1nc(CCOCC2CC2)no1 (centres undefined) the Potency was active: 28.2 µM.
With CNC(=O)c1cc(C2CC2)nc2c1c(C1CCCN1[S+](=O)([O-])c1cccc(C(F)(F)F)c1)nn2C (centres undefined) the Potency was inconclusive: 44.7 µM [inhibitor, partial curve].
With COc1ccc(Nc2ccc3c(n2)CN(Cc2nc4ccccc4s2)C(=O)CO3)cn1 the Potency was inconclusive: 63.1 µM [inhibitor, partial curve, poor fit].
For COc1cccc(F)c1-c1ncc2c(n1)OCCN(CC1CC1)C2=O, the Potency was inconclusive: 112 µM [inhibitor, single point].
For Cc1cccc(CN2CCc3ncc(C(=O)NCc4ccccc4)n3CC2)c1, the Potency was inconclusive: 4.47 µM [inhibitor, full curve, poor fit].
For O=C(CN1C(=O)C(c2ccccc2)=NC12CCCC2)NCc1ccccc1Cl, the Potency was inconclusive: 35.5 µM [inhibitor, partial curve, poor fit].
With COc1ccc(-n2nc(C3CCCN(C(=O)Cc4ccc(F)cc4)C3)[nH]c2=O)cc1 (centres undefined) the Potency was inconclusive: 70.8 µM [inhibitor, partial curve, poor fit].
In the case of CNc1cc(C)nc(N2CCN(Cc3ccc(C)cc3)C(CCO)C2)n1 (centres undefined), the Potency is reported as inconclusive: 79.4 µM [inhibitor, partial curve].
In the case of CC(C)c1cc(C2CCCN2C(=O)CCc2cc3n(n2)CCCNC3)no1 (centres undefined), the “activity change, negative = cytotoxicity” value is reported as inactive: 4.35%.
For O=C1NC(=NC2CCCCC2)C2(CCN(CC3CCCCC3)C2)N1c1cc(F)cc(F)c1 (centres undefined), the Potency was active: 31.6 µM.
In the case of O=C(NCc1cccs1)C1CCN(C(=O)c2ccc(-c3cccs3)cc2)CC1, the Potency is reported as inconclusive: 50.1 µM [inhibitor, partial curve, poor fit].
For Cc1cc(F)ccc1OC1CN(Cc2ccc(C#N)cc2)C1, the Potency was inconclusive: 56.2 µM [inhibitor, partial curve, poor fit].
